Test results as given in the supplement of paper PMC10681739.
± gives the standard deviation of the averaged measurements. In all, about 4,000 sequences were measured (“arbitrary fluorescence units”: median about 830, highest 2% from about 6,500 on). The list lacks most of the strong results.

biological target: RUNX1 (UniProt Q01196); assay: RUNX1 binding intensity (PBM fluorescence), RUNX1 alone (arbitrary fluorescence units); higher = stronger binding; conditions: RUNX1 concentration 2 nM; ETS1 concentration 0 nM
Sequence of UniProt Q01196 (Q01196 whole entry): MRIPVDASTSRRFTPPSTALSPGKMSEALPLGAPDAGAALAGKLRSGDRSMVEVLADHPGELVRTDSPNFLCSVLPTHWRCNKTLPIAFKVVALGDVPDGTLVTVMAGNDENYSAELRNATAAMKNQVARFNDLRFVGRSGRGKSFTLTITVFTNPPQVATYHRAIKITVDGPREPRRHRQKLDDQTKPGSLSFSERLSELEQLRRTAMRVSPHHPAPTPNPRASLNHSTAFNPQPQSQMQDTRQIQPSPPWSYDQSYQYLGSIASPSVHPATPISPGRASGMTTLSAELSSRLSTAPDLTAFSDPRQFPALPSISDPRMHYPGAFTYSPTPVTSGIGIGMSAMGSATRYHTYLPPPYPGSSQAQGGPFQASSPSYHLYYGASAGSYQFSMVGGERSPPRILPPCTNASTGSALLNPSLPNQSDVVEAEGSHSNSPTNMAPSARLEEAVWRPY
Procedure: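 gcPBM on 36-bp genomic-derived probes (partner site mutated) containing one RUNX1 site and no ETS1 site. Recombinant human RUNX1 (2 nM) was incubated alone or with ETS1 (25 nM) and detected by anti-RUNX1 antibody fluorescence. Values are medians over 4 replicate spots (not normalised). The probes sit in constant array flanks that are not printed.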
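Note: Full-length recombinant human RUNX1 bound to double-stranded DNA microarray spots, detected with an Alexa488-labelled secondary antibody after the anti-RUNX1 primary, read as scanned spot fluorescence.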

Sequence	RUNX1 binding intensity
CTAAGTGCTCTTCATGCCAACCTGTGGGCGCCTGGC	655
CCAACCGCAGCGCTACTCCCGGCCGCTTGCGCCTGG	3670
CTGGGGAGGTGTGACACTCAGAGAAACCACAAGGTG	1100
TGGCCTCTGCGGCCCTGGCCTTGACTGCCTTTCCTC	765
TTTTCAACCGCCTTCCCTTCAGGCCTCCTTGTTTTT	1940
GGCTCCCTCGCGACCACCACGACTTGCCTCGTCCCT	1140
CAGAAGGTGGTTACGTACTAATCTCCTCTAGGGCTT	847
AGCTCCCCTCCCCTGAAACTTGACCACCTAGCCCAG	796
CTTGGCAGTTCGGTCCACTTCAGCCGCAGCGTCCCT	795
CCAGAGGGCGGCAGTGGGAGCTGCGACCGCGCTCCC	772
TGCTGCCCAGCACCGCAAGGACACGGAGGCCCCGCC	834
CTGAAACATGAAGCTGAGGGTGCGGTTGGGGGAGGA	847
TGTAGTTTGGCGGTTTGGGGGAGGTGTTTGTTTTGT	933
TGCAAAAAAACAGTAAACACCCAGCCGCAAATTATA	933
ACCAGCATGTAGTTTAGCTTAGGGGTGGTTATATCG	727
ATTGCTCCCGACGCTACTCCTGCCGGGTCACCACAG	896
GACGCTGCGGTAGCGCTGCTCCTTGCGCCTCCGGCT	984
CAGCAGTAAGCCACAGAGGAAAACAGGCAGTGATAC	813
GAAGCACCCACAGCCCTACCAGCCTCCGTAGAGAGA	1030
ACCTTCCTTGCTGCCTCCCTTGTGGCTCCAGTCCAC	1310
TTCGCCCTTCCCATCCTATGAAAACCACTTTCCTTC	1580
AAAAGGCACCAGGCAATGACAGCACCGCAGCACGCC	857
GCGATGTTGCCGAGGCAACGCGCTGGTGTGGGTTAG	705
TCCTTTTTCGGTGGCGGCGCCGCGCGGTGAGGTTGT	797
CTGCGGTGATGAGGCGAAAGGGATCCCTGAAAAGCC	724

Sequence	RUNX1 binding intensity
ATCAGCCTGACCATATGTTTCTTTAGGCCACAAAAC	825
GTCCACTGCGGCTTCAAAATCCGAATGCGCCGGTAT	849
TCCACAATTCCCAAGGGTCTCTGCGGCTGCGCGGAG	790
AGGGTGTGGAGGAGGTGGCTTACAACCACTTTGTCT	748
GGGGCAGTGGTCACAGGAGGATCTTGCTGGAGTCAT	697
CCAGCCTCAACCGCCCTCACTTGCGCTGACCCGCCC	1250
AAGCACCACATCGGCAGCTCATGCACTCCCGGCGCA	763
TTCGCGCCCACCCGCATCGCCAGTTTTCAGGCGCCA	751
AGAGGCTCCCTGAGGAACTGGTGTGGTCAGGGGAGC	719
CTGTGAGGTTGTGGTACTGGAAACTCCCTCCTAAAT	964
CTCAGACCCGCAGTGAGGTCTGACGTCATTTGCTGC	728
ATAAAGGACGTACAGTATTTAGAGAACAGTGGTTAA	761
TTCTTGTTTCATGTCAAGGGAGGCTCTGACCACCTC	861
GAGACAGGCAATGTAGACTTGAGTCCTGTGGTAAAC	683
GGGGCTGTGCTTCAGGCTGTTTGTGCGGTTTTGTGC	1510
AGGTTTGTGGGTTCACTCTGGTATTTATTGCCTCTT	1160
ACAGAAGCGGTCACGTGCCTTGGCGCGCTCCCGCTC	735
GGTTCTGTGGGAGTAGAGAGTGAGGCAATGAGTCAT	678
ACCCAGGGGACTTGCTGGCTCAGTGCCACAACCCAG	826
AAGTGAAGAGCTTCGGCCGGGAGACCGCGGCTGCAG	689
AGCCGTGGTCAGCAGCAGCACGACTGCCGCCTCCGC	770
AGCCACACCACAGGGTTGTCACAGCAAATATGTGGC	744
GGCGGGACTTTCGGCGTCTCCCCTCGGCGGTTGCTT	815
CTCTTGCTGCCTGTCCGTGGCTGGTGTGGTTTGCGT	873
CAGACCAGCCCAGGCAACAAGGAACCACAAAGCCAC	971

Sequence	RUNX1 binding intensity
GATGCAGTGTGGTTTAACGGTTGCCTGACTTTGAAG	1110 ± 110
TGGTGGTTTGGTGCTTTGGTGGCAGCATGAAGGTAA	853
TGCCCTGACTGCCTGGTCCTGTGGTCAAGGATGGGG	871
CTCCATCTCCCACAAGCCCTCCTTCACTTTCGGCTC	1750
CTAACAGCAGCAAGTGCTTGGTGGTTTAGCACCTCA	698
TGAATCATTCTGAGTTACCCGTTCTGTAACCGCCCC	952
CTTGCCACACTGCCTCTTGTTTTGAACCACTATATT	2040
GGGCAGGCCGTATGTGGGAGACCACAAAGCCCAAGG	787
TGTTTTCGCTCTTTCTGGCCTTGCGGGCAGCCAGGA	993
TGGAAGAGCAAGGGGCGGAGCTGCTTTGCGGCCGGC	655
TAGCCACGAACCTGAAACGTTAAACCACAGCTCCGT	1060
ATGAACCACTGCCTGTGTGTTCCCACAGAGGTCAGG	741
TGAAACCTCAGATATCTGGCCACCAGCAAATGCTGT	820
TTCGGATTCTCGGAAGAACCCGCAGCAGCTCCCAGG	778
GGAGCATCCCGGGAGTCGTCACTGCGGCCGCTCCCG	680
ACACAGAAAGCAAAAGTTAAGCTATAAAACCCGCAA	943
CTGACTGTGGTAAACCGATCTGGCTTCAGGCAGTCC	897
GACAAAGACCGCAAAAAGATCCTTGAACGTAAAGCC	3010
AGTGGCGTGGTTTGGGGCTTTATAGCCGGGAGGAGC	771
CTGCACAAGGAGGCGCCTGTGTTGCTGTGGGCGGAG	719
GGCAACCTGAGCTGCCGTGTAAAACCACAGTGTGAC	938
CCTCGCCCCCTGCCGCACCCACCCCACCGCGCTCCG	1540
CCGATTCCTTAGAGGTTAAGTGGTGGTGGTTCAGTT	809
ATTTCCATTTACGGACTCTTCTCCTGCCCGCAGGGC	1020
ATTGGTTTCTGTGGTTGACGAGGCATCAGGTCTATG	1980

Sequence	RUNX1 binding intensity
TTAAACACGGAGGTGCATCGGTTGTTGTGGTTATTC	804
CTGCAGTCACCCACAGCTCACTGCCGCTCTCCACTT	1100
GTGAGGTTTGTGGTTGGAATCCACTGCCTCTGGTTT	1580
CTGAGGCGCGCCGTAAGGGCTAGCGGTCCCAGCATA	657
GAAGGGGAGGTCCAGGAGCATGGGTGGTTTTTTTCC	804
GAGGGAGGTGAATCAGGCGCCGGGTAGTGGGTTGCT	720
TCAGCAAGACCACAAACCCACCTGAAAGAAGAAACT	1470
GAGAGAGGCATGAAGTGTTGTGGTTATTGTTTGAGC	1040
CCACTAGCAGCAAAACGGGCCGAGGGACCGCAAGCA	821
ACCCTTGCTGGAGCATTGTCGCAGCAACCACAACAG	942
CGGGCTGGGATGAATTGATGGCTGACCACAGAGGAG	960
GAACCCCAGAAACCGCGAGCCGTTGCCTTTCTCTTC	3010
TGTCTGAGGTTTCTCTGTGAACATGAAGCTGAGAAC	790
GTGCTGCGGTGCTAGAGCGCGGCGCGACCGTACGCT	735
TATCACATGCTGCTGGACAAAAAGGCCAAACCACCT	873
TGGGGACAGGCAATGTTTACTGCCTGTGGCTTGCTG	677
ATGGTCCAGCAAGATAAGGGCTGAAAACCACCCACT	773
TCTCGGCCGCGGCCGCAGCACCCGGGAGCTGAGGGG	727
GCGGAGCTTGTGGGCCAGGAGGACTTTCGGGTGGGT	702
GGGCTCCCCGGGTACAAAAATGGCTGTGGCTAGCGA	687
GGGCTGCGGCGCTGGAATTGGACCAATCCAGAATCG	695
GGCAACAACCACAAATCAGTGCGCCGGCCTCCTTAT	1530
CAGTGGCTTGCTCCCCACCTCCTACCACATTCAATG	965
TAACTTGAACGTCCTTTTGACCACCTGTACGGTATA	917
CCTGTGCTGCGGGCTCAGGCGGGACCCGAAACGGTC	789

Sequence	RUNX1 binding intensity
GTCACAGCCGCAGAGCGCCCGAATTCCCAGAAGGCA	859
GTTAACAAAACCACACACCTCAGGCTTCGTCCCCAG	1860
GGGCCGCGGTCAGGGCTGGCCACGTGAAGCAGACAG	983
TTATTCCCGGTGTTGATCTTTTTAGTGGTACCAGGC	912
ACATCTCCGTTCAGCTCAGTGTTCGCGGTGCGAGAC	810
GTGTGGAAGGAGCAAGCGAGAATGTGGTTACTTAGG	820
CCCTGGAACCGAAGGCCACCTCTTGCGGCTGCGAGC	839
GGGCTTGACCGCCATGTTTGAAGCGGGCGCAAAAAA	758
TTGAAGCGGCGGTTCGATGCGAAAGTGGCGGGTGCA	690
AGCGGCTGAACCACGCGCGGGAGCTGGTGCGGTCGG	806
TGCCCGCGGGCCGCAGCCTCCGTATTTGCGCGTTTT	864
AACCCACCGAATGGAAGCTGCCACTCAGCCGCAGGA	944
CATTTCACGTTCCACTGACTTTCTGTGGGGCCCCAA	997
GTGCTAGGACACACGAAGCGATACCACAAAGAACAT	861
TGTCGGGCGCATGTGTACCGGCGGTAATATAGTAAG	754
ACCCAGCTGTGGTTTGATCTCACACTGCCTTCACAC	1330
GACACTCAGCCTGACTCCACTCGCCCGCAGGCAGGC	936
GCTGCGCAGAGGAGACCAGGCTTGTTGGTTTTCATG	667
GTGGGAGCGCAAGCCTGAGCGGCCTGCGGCCTCCGG	727 ± 36
CCGACCGCATTTTACGTGGTGCTGCATTCCCGGTAG	1320
CTGATTGGCTGCGGCCAGGCCGTTTCAGGTGGAGCT	735
ATGCTGGACGTGGTTGCATAGTATCTCCTAACGGAG	718
GATGGGCTGGGGATCTGGCCTGTTTGCCGCAGGCGA	710
GGCACACTGCGGTTGCACCATAAGCTTGCTGGATGG	3250
GCAGAGTAACCCACTCTAGTTGTCCCATCCTTAAGC	952
